# The whole screen tested about 310,000 compounds, of which about 2,200 (0.71%) showed an effect of 50% or more. The effect is printed as a negative number. The list shows a part of the results.
# Molecular target: human ether-à-go-go-related gene (hERG) potassium channel (human, UniProt Q12809)
# Experiment: primary screen, population patch clamp on CHO cells stably expressing hERG
# human ether-à-go-go-related gene (hERG) potassium channel, sequence (Q12809 whole entry, looked up): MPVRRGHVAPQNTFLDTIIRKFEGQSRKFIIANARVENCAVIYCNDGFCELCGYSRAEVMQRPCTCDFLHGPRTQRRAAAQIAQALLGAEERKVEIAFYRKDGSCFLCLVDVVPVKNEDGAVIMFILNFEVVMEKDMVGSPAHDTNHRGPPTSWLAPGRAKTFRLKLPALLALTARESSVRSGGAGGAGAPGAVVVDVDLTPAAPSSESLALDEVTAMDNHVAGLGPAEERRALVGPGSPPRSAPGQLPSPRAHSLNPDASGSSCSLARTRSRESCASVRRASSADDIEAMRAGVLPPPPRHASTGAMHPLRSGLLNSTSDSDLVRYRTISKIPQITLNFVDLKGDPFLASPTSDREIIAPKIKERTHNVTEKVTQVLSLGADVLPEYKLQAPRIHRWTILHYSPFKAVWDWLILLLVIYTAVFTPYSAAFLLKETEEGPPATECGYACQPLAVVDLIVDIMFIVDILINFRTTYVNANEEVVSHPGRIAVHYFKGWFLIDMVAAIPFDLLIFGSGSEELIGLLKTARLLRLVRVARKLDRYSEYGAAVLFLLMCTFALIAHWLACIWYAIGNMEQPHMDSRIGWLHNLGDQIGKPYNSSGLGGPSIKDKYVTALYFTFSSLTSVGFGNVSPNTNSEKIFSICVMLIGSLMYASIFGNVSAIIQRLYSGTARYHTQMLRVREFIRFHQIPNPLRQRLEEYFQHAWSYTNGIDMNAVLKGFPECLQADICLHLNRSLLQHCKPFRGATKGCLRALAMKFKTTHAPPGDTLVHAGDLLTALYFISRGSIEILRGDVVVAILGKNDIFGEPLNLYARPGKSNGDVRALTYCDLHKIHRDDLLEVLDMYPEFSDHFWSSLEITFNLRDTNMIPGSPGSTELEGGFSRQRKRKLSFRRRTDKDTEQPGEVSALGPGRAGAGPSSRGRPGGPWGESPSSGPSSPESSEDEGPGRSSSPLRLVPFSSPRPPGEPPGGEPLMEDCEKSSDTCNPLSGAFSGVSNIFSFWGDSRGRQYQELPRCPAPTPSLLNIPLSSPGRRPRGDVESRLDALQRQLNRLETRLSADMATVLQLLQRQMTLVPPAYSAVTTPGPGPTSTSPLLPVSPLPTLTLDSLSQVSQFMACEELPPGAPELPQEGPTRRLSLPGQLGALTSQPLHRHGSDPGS
row,SMILES,"hERG current change (%, negative = inhibition) at 1uM [%]"
1,O=C(Nc1ccc2c(c1)OCCO2)c1cccnc1Oc1ccc(Cl)cc1,8.93
2,COc1ccc(-c2nc(CS(=O)CC(=O)NC3CCCCCC3)c(C)o2)cc1 (stereo not shown),7.4
3,OCc1nc2ccccc2n1CC(O)COc1ccccc1 (stereo not shown),13.3
4,Cc1ccc(NC(=O)NC2(C(=O)NCc3ccccc3)CCCCC2)cc1,0.273
5,O=C1CCCN1CC(O)CS(=O)(=O)c1ccccc1 (stereo not shown),14.4
6,O=[N+]([O-])c1ccc(N2CCN(c3ccc(F)cc3)CC2)nc1,0.701
7,COc1ccc(CC2(CO)CCN(Cc3cnn(-c4ccc(F)cc4)c3)CC2)cc1,-79.2
8,Cc1ccc2c(c1)N(CC(=O)NCCCc1ccccc1)C(=O)c1cccnc1O2,0.147
9,CCOC(=O)c1ccc(NC(=O)CN2CCN(c3ccccc3)CC2)cc1,14.9
10,Cc1cc(C(F)(F)F)n2nc(-c3cnn(C)c3C(F)(F)F)c(Cl)c2n1,9.07
11,CCC1(c2ccccc2)NC(=O)N(CC(=O)Nc2ccccc2C(=O)NC2CCCC2)C1=O (stereo not shown),-4.23
12,O=C1c2cccc3cccc(c23)C(=O)C1(O)O,4.79
13,C[C@@H](C(=O)NC1CCCC1)N1C(=O)N2CCc3c([nH]c4ccccc34)[C@@]2(C)C1=O,2.37
14,Cc1cnc(C(=O)OCC(=O)NC(C)C)cn1,6.41
15,O=C(NC1CCCCC1)C12CC3CC(C1)CC(n1cncn1)(C3)C2,6.03
16,CCc1cc(=O)oc2c(C)c(OCC(=O)NC3CC(C)(C)NC(C)(C)C3)ccc12,11.4
17,COc1ccc(C(=O)NNC(=O)CSc2nnc(COc3ccccc3)n2C)cc1,-2.95
18,CC(C)c1ccccc1NC(=S)N1CCN(Cc2ccc3c(c2)OCO3)CC1,6.09
19,O=C1CSC(c2ccc(F)cc2)N1c1nc2ccccc2s1 (stereo not shown),-10.6
20,COc1ccc(S(=O)(=O)NC(CC(=O)NCc2ccco2)c2ccco2)cc1 (stereo not shown),8.76
21,Cc1cccc(C)c1OCCCCn1cnc2ccccc2c1=O,-3.03
22,CC12CCC(=O)N1C(C(=O)Nc1ccc(SC(F)F)cc1)CS2 (stereo not shown),-19.5

row,SMILES,"hERG current change (%, negative = inhibition) at 1uM [%]"
1,O=C(NC1CCCCC1)c1cc(-c2ccccc2Cl)on1,16.5
2,COc1ccc(C)cc1Nc1n[n+](-c2ccccc2)c(-c2ccc(OC)c(OC)c2OC)s1.[Cl-],-43.9
3,O=C(NCc1cccnc1)c1cnc2n(c1=O)CCS2,9.33
4,COc1cc(OC)c(OC)cc1/C=N/n1c(-c2n[nH]c3c2CCC3)n[nH]c1=S,11.3
5,N#Cc1c(Cl)nc(SCc2ccccc2)nc1-c1ccccc1,10.8
6,Cc1ccc(N2C(=O)SC(Cc3ccccc3)C2=O)cc1 (stereo not shown),15.2
7,Cn1nnnc1SCC(=O)NNC(=O)c1ccc(Cl)cc1,-0.975
8,CC(C)(CC(=O)O)CC(=O)N1CCCN(c2nccc(C(F)(F)F)n2)CC1,13.6
9,COc1ccc(C(C)=O)cc1CSCC(=O)O,12.9
10,COc1ccc(CCC(=O)Nc2cc3c4c(c2)CCC(=O)N4CCC3)cc1,2.95
11,CCSc1nnc(N2C(=O)CC(c3ccsc3)C3=C2CC(C)(C)CC3=O)s1 (stereo not shown),8.51
12,CC(=O)NNC(=O)N1Cc2ccccc2Oc2ccc(Cl)cc21,13
13,CN1CCN(c2nc(-c3cccs3)nc3ccccc23)CC1,-55
14,Cc1ccc2cc(CN(c3ccc(C)c(C)c3)S(C)(=O)=O)c(=O)[nH]c2c1,16.6
15,c1cc2cc(-c3c(-c4ccc5c(c4)OCO5)noc3-c3ccsc3)ccc2[nH]1,12.9
16,C=C(C)c1cccc(C(C)(C)NC(=O)Nn2cnnc2)c1,9.78
17,O=Cc1cccnc1SCc1ccccc1,12.7
18,Cc1ccc(NC(=O)NCc2ccc3c(c2)OCO3)c(C)c1,10.8
19,CCCCOC(=O)Cn1c(=O)n(CC(=O)OCCCC)c2ccccc21,-1.57
20,C/C(CCC(C)C)=N\NC(=S)Nc1cc(S(=O)(=O)N2CCOCC2)ccc1N1CCOCC1,4.15
21,CCN(CC)CCNC(=O)CNC(=O)c1nn(-c2ccc(OC)cc2)c(=O)c2ccccc12,9.31
22,CCOc1ccc(C(C)NC(=O)Nc2ccc(F)cc2F)cc1 (stereo not shown),5.38

row,SMILES,"hERG current change (%, negative = inhibition) at 1uM [%]"
1,Cc1ccc(C(=O)Nc2ccc(OCc3ccccc3)cc2)s1,10.8
2,O=C(NC[C@@H]1CCCO1)c1cccc2c1C(=O)c1ccc(Cl)cc1S2(=O)=O,4.75
3,COc1ccc2c(c1)c(C(=O)CN1CCN(C(=O)c3ccco3)CC1)c(C)n2C,12.7
4,Cc1ccc(C)c(NS(=O)(=O)c2cc(C(N)=O)ccc2C)c1,2.72
5,COc1cc(NC(=O)c2ccc(COc3ccccc3Br)o2)cc(OC)c1OC,-1.71
6,COc1ccc(C(=O)Nc2ccc3nc(N4CCN(C)CC4)cc(C)c3c2)c(OC)c1,13.3
7,CN1C(=O)c2ccc(C(=O)NCc3ccco3)cc2C1=O,13.9
8,O=C1CN(C(=O)c2cc(Br)c(Br)s2)c2ccccc2N1,15.4
9,O=[N+]([O-])c1ccn(-c2nc(-c3cccs3)cc(C(F)(F)F)n2)n1,12.4
10,C/[N+]([O-])=C\CC(=O)c1ccc(-c2ccccc2)cc1,9.92
11,CCOc1cc(/C=N/NC(=O)Cc2ccc(C(F)(F)F)cc2[N+](=O)[O-])c(Br)cc1OC,10.2
12,O=[N+]([O-])c1cc(/C=N/NC(=S)Nc2ccccc2Cl)ccc1Cl,15.9
13,N#C/C(=C\c1ccc(/C=C(/C#N)c2nn(CCO)c(N)c2C#N)cc1)c1nn(CCO)c(N)c1C#N,10.1
14,COc1ccc(NC(=O)COC(=O)CC23CC4CC(CC(C4)C2)C3)c([N+](=O)[O-])c1,13.4
15,Cc1onc(C(=O)NCc2ccc(F)cc2)c1[N+](=O)[O-],8.32
16,CC1CC(C)CN(C(=O)Cn2c(=O)oc3cc(S(=O)(=O)N4CCCC4)ccc32)C1 (stereo not shown),9.47
17,O=C(NCCCN=C1NS(=O)(=O)c2ccccc21)c1ccc(S(=O)(=O)N2CCOCC2)cc1,2.08
18,CC(C)C(=O)c1cn(CC(=O)O)c2ccccc12,13.9
19,N/C(=N\OC(=O)c1ccc(Cl)cc1)c1ccn[nH]1,13.7
20,CC(OC(=O)c1cccc(-n2cnnn2)c1)C(=O)Nc1ccccc1F (stereo not shown),13.5
21,O=C(NC(NC(=S)Nc1c(Cl)cc(Cl)cc1Cl)C(Cl)(Cl)Cl)OCc1ccccc1 (stereo not shown),7.07
22,Cc1ccc(S(=O)(=O)N/N=C/c2cn(C)nc2C)cc1,4.78

row,SMILES,"hERG current change (%, negative = inhibition) at 1uM [%]"
1,O=C(NCCc1ccccc1)c1ccccc1Cl,6.87
2,NC(=O)COC(=O)c1cccc(S(=O)(=O)N2CCN(c3ccccc3)CC2)c1,-13.6
3,COc1cc(CN(C(=S)NCC(=O)NC2CC2)C2CCCC2)cc(OC)c1OC,9.89
4,Cl.OCCNc1nc(Nc2ccc(Br)cc2)nc2ccccc12,2.17
5,CCOC(=O)N1CCN(C(=O)c2ccc3c(=O)n(-c4ccc(OC)cc4OC)c(=S)[nH]c3c2)CC1,11.1
6,CC(=O)c1c2c3c(cccc3n(C)c1=O)C(=O)c1ccccc1-2,10.4
7,O=C(CSc1nnnn1Cc1ccccc1)NCCc1ccccc1,9.2
8,O=C(NCSc1ccnc(SCNC(=O)c2ccccc2)n1)c1ccccc1,1.8
9,Cc1ccc(-c2nn(C)c(=O)c3ccccc23)cc1CN1CCCCC1,7.16
10,CC(=O)Nc1ncc(Cc2cccc(Cl)c2Cl)s1,13.8
11,CC(=O)Nc1cccc(NS(=O)(=O)Cc2ccc(Cl)cc2)c1,9.85
12,CCCCN(CC)S(=O)(=O)N1CCC(C(=O)NCc2ccc(F)cc2)CC1,0.175
13,CCOCC(=O)Nc1cccc(C(=O)OCC)c1,-4.24
14,O=C(Nc1ccccc1F)c1cc(S(=O)(=O)N2CCCCC2)cs1,1.07
15,COc1ccc(OC)c(-c2nc(C(N)=O)c3[nH]c(=O)n(-c4ccc(F)cc4)c3n2)c1,9.08
16,O=C(NC1CCCCCC1)C1c2ccccc2C(=O)N1C1CC1 (stereo not shown),16.7
17,C=CCNC(=O)Cn1c(=O)c2c(ncn2CCC(C)C)n(Cc2ccccc2)c1=O,13.5
18,CCOc1ccc(CCN2CN(C3CCCCC3)CNC2=S)cc1OCC,10.6
19,COc1ccc(OC)c(C2=NOC(C(=O)Nc3cc(C)on3)C2)c1 (stereo not shown),1.55
20,COc1cccc(CNn2cn[nH]c2=S)c1OCc1ccccc1,1.76
21,COc1ccccc1CC(=O)N1CCN(c2ccc(F)cc2)CC1,13.5
22,Nn1c(SCC(=O)NC2CCS(=O)(=O)C2)nnc1-c1cccs1 (stereo not shown),16.4
